In PubChem BioAssay AID588453 (National Center for Advancing Translational Sciences (NCATS), 2011):
Several values for one entry are separate records, joined by “and”; a condition that tells them apart may be missing. Equal entries are not always repeated. Screen size: about 390,000 compounds; about 4,000 (1%) were called active. This list was built around the results that the source calls inconclusive (neither active nor inactive); the mix of calls is not that of the screen. The call rests on the fitted dose curve; in most records, active means well fitted inhibition curve with a large enough effect; inconclusive means small, poorly fitted or top-dose-only effect; inactive means no such curve, though single readings can be large or run the other way. Potencies beside an inconclusive call are fits to weak or partial responses and may not hold up.

biological target: Thioredoxin reductase 1, cytoplasmic (Rattus norvegicus) (UniProt O89049); assay: qHTS Assay for Inhibitors of Mammalian Selenoprotein Thioredoxin Reductase 1 (TrxR1): qHTS; settings: recombinant rTrxR1, NADPH fluorescence consumption, selenite substrate; series mostly up to 114 µM; further: nearly all actives have a fitted effect of over 65% in size
Description: The selenoprotein thioredoxin reductase (TrxR; EC 1.8.1.9) is a FAD containing homodimeric pyridine nucleotide-disulfide oxidoreductase with many cellular roles. Together with NADPH and its prime substrate thioredoxin (Trx), the enzyme forms the core of the Trx system. The mammalian Trx system exerts a wide spectrum of functions including redox regulation, antioxidant defense, regulation of transcription factors as well as support of cell growth and replication. Many of these functions involve the reduction of Trx, which may subsequently reduce a number of different substrates including ribonucleotide reductase, peroxiredoxins or NFkB. Mammalian TrxR itself also has a broad substrate specificity, reducing both protein and non-protein substrates, including low molecular weight compounds such as dehydroascorbate, lipoic acid, ubiquinone, and juglone. In addition, several drugs in clinical use for anticancer treatment are indeed known to target TrxR1.
This BioAssay is a validation of an NADPH fluorescence-based, dual-purpose qHTS rTrxR1 assay designed to find potential inhibitors and substrates of rTrxR1. For this particular BioAssay, actives are potential inhibitors. See related BioAssay for substrate data deposition.
NIH Molecular Libraries Probe Production Network [MLPCN]
NIH Chemical Genomics Center [NCGC]
Assay Provider: Elias Arner, Karolinska Institute
Assay protocol: 2 uL of reagents (buffer in column 4 as negative control and 90 nM rTrxR1 in columns 1-3 and 5-48) were dispensed into Greiner black solid-bottom 1,536-well assay plates, followed by 1 uL of NADPH (400 uM final concentration) to each well. The plates were centrifuged at 1000 rpm for 15 seconds and subsequently incubated for 5 min at room temperature (~22 deg C) to allow for rTrxR1 reduction. Compounds (23 nL) were then transferred via Kalypsys pin tool equipped with 1536-pin array (10 nL slotted pins, V&P Scientific, San Diego, CA). In addition, a duplicate 2-fold serial dilution of the control compounds auranofin, a known gold-based TrxR1 inhibitor, and juglone (5-hydroxy-1,4-naphthoquinone), a natural TrxR1 substrate, were pin-transferred to columns 2 and 3, respectively. After incubation for 15 min at room temperature (~22 deg C), 1 uL of selenite (400 uM final concentration) were dispensed to each well. The plate was immediately transferred to a ViewLux high-throughput CCD imager (PerkinElmer), wherein kinetic measurements of NADPH fluorescence (Ex 340 nm, Em 450 nm) were acquired (8 minute kinetic read, see Table 1). Read 1 was utilized to assess the capacity of a compound to serve as an rTrxR1 substrate, i.e. a decrease in NADPH fluorescence compared to the no-compound background is an indication of a substrate behavior for that particular compound. For inhibitory activity of a compound, delta values, computed as the difference in fluorescence intensity between the first and last reads of an 8-minute time kinetic window, were used. All reagents were diluted in an assay buffer consisting of 50 mM Tris-HCl, pH 7.5, 2 mM EDTA, and 0.01% Tween-20.
Throughout the screen, reagent bottle and all liquid lines were made light-tight to minimize reagent degradation. All screening operations were performed on a fully integrated robotic system (Kalypsys, San Diego, CA) containing one RX-130 and two RX-90 anthropomorphic robotic arms (Staubli, Duncan, SC). Library plates were screened starting from the lowest and proceeding to the highest concentration, and a 'double-pinning' step of the highest concentration was required to access higher concentrations of compounds. Vehicle-only plates, with DMSO being pin-transferred to the columns 5-48, were inserted uniformly at the beginning and the end of each library in order to monitor and record any shifts in the background, which can be affected by reagent dispensers or loss in enzyme activity over time. […]
On the % scale 0 is the no-effect control and ±100 the full control effect; potency means the concentration at half of the fitted maximal effect; tags describe the fitted curve by direction and shape.

UniProt O89049, sequence (O89049 whole entry, looked up): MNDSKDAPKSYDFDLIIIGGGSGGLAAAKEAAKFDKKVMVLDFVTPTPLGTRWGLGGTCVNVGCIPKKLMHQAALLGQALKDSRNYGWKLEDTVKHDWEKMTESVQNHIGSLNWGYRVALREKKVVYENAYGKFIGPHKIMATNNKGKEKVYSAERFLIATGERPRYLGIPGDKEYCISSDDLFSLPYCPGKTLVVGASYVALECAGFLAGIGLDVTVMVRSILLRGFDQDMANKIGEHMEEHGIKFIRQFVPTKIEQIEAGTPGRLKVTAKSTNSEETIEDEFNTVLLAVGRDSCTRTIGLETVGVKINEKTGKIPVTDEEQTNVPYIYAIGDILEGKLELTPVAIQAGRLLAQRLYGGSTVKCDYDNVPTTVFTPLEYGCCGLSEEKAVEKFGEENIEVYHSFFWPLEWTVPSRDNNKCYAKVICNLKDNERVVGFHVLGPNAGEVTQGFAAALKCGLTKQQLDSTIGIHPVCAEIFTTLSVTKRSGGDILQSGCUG

| SMILES | Potency | activity change, negative = inhibition |
| --- | --- | --- |
| O=C(CSc1ccsc1[N+](=O)[O-])N1CCN(c2ccccn2)CC1 | inconclusive: 17.8 µM [inhibitor, partial curve] | – |
| CCOC(=O)c1ccc(-n2c(CN3CCC(C(N)=O)CC3)nc3ccc([N+](=O)[O-])cc3c2=O)cc1 | inconclusive: 28.2 µM [inhibitor, partial curve] | – |
| Cc1ccc(C2=NN3C(C2)c2ccccc2OC32C(=O)Nc3ccccc32)cc1 (stereo unspecified) | inconclusive: 39.8 µM [inhibitor, single point] | – |
| Cc1ccc(S(=O)(=O)C(CNC(=O)C(=O)NCc2ccc(Cl)cc2)c2cccs2)cc1 (stereo unspecified) | inconclusive: 15.8 µM [inhibitor, partial curve] | – |
| Cc1ccc(/C=N/NC(=O)c2nnn(-c3nonc3N)c2-c2cccs2)cc1 | inconclusive: 25.1 µM [inhibitor, single point] | – |
| FC(F)(F)c1cccc(NC(=S)Nc2ccc(Cl)c(Cl)c2)c1 | inconclusive: 44.7 µM [inhibitor, partial curve] | – |
| Cc1nc2nc(SCC(N)=O)[nH]c2cc1Br | inactive | – |
| CCCCCC(=O)Nc1ccc(C(=O)COC(=O)Cn2cnc3c2c(=O)n(C)c(=O)n3C)cc1 | inconclusive: 89.1 µM [inhibitor, single point] | – |
| O=C(COC(=O)CN1CCSC1=O)Nc1ccc(F)cc1Cl | inconclusive: 70.8 µM [inhibitor, partial curve] | – |
| COc1ccc2c(c1)cc(C(=O)N[C@H](C(=O)N1CCC(C(=O)O)CC1)C(C)C)n2C | inactive | – |
| O=C(CCNc1ccccc1)c1ccc2c(c1)OCO2 | inconclusive: 3.16 µM [inhibitor, full curve] | – |
| Nn1cnnc1N/N=C/c1ccc(Cl)c([N+](=O)[O-])c1 | inactive | – |
| O=C(Cc1ccc(F)cc1)NC1CC(=O)N(c2ccccc2)C1 (stereo unspecified) | inactive | – |
| COC(=O)C1=C(C)N(Cc2ccc(C)cc2)C(=O)/C1=C\c1ccc(O)c(OC)c1 | inconclusive: 25.1 µM [inhibitor, single point] | – |
| CCC(C)n1c(SCC(=O)Nc2cc(C)on2)nc2ccccc2c1=O (stereo unspecified) | inactive | – |
| COc1ccc(C(=O)NC(=S)N2CCCc3ccccc32)cc1OC | inactive | – |
| N#CC1=C2SCN(Cc3ccccc3)CN2C(=O)CC1c1cccs1 (stereo unspecified) | inconclusive: 14.1 µM [inhibitor, partial curve] | – |
| CCC(C)NC(=O)CSc1nc2ccccc2c(=O)n1CCCN1CCCCC1 (stereo unspecified) | – | inactive: 58.1% [at 11.4 µM] |
| Cn1cccc1C1CCCN1CC(=O)Nc1c(Cl)cc(Cl)cc1Cl (stereo unspecified) | inconclusive: 89.1 µM [inhibitor, single point] | – |
| CCc1nn(CC(=O)NCCCN2CCc3ccccc3C2)c(=O)c2cc3sccc3n12 | inconclusive: 39.8 µM [inhibitor, partial curve, poor fit] | – |
| CC(=O)N1CCn2c3c(c(=O)c4cc(C)ccc42)CCC31 (stereo unspecified) | inconclusive: 25.1 µM [inhibitor, single point] | – |
| CCOC(=O)c1c[nH]c2c(Cl)c(Cl)ccc2c1=O | inactive | – |
| COc1ccc(NC(=O)c2c(NCc3ccc(C)o3)sc3c2CCC(C)C3)c(OC)c1 (stereo unspecified) | inactive | – |
| CC(C)CCOc1ncnc2c1sc1nc3c(cc12)CSC(C)(C)C3 | inconclusive: 50.1 µM [inhibitor, partial curve, poor fit] | – |

| SMILES | Potency | activity change, negative = inhibition |
| --- | --- | --- |
| CCN(CC)c1ccc([N+](=O)[O-])cc1C(=O)O | inconclusive: 50.1 µM [inhibitor, partial curve] | – |
| Cc1cc(-c2nc(C)c(-c3nnc(SCC(=O)Nc4ccc(Cl)cc4)n3C)s2)no1 | inconclusive: 89.1 µM [inhibitor, single point] | – |
| Cc1ccc(/C=C2/Sc3ccc(C(=O)N4CCN(c5ccccn5)CC4)cc3NC2=O)cc1 | inactive | – |
| COc1cccc(NS(=O)(=O)c2ccc3c(c2)CC(=O)N3)c1 | inactive | – |
| COc1ccc(CNc2ccc3cn[nH]c3c2)c(OC)c1OC | inconclusive: 12.6 µM [inhibitor, full curve] | – |
| COC(=O)COc1ccc(C2Nc3c(Cl)ccc(C(=O)O)c3C3C=CCC32)cc1 (stereo unspecified) | active: 12.6 µM | – |
| Cc1ccc2c(C(=O)CN3CCCCC3)c(C)[nH]c2c1 | inconclusive: 44.7 µM [inhibitor, partial curve, poor fit] | – |
| Nc1cc(=O)[nH]c(=O)n1-c1ccc(Cl)cc1 | inactive | – |
| O=C(O)c1ccc(NC(=S)NC(=O)c2cccc(COc3ccccc3)c2)cc1 | inconclusive: 11.2 µM [inhibitor, full curve] | – |
| O=C(c1cccs1)N1CCN(Cc2nc3ccccc3c(=O)[nH]2)CC1 | inconclusive: 89.1 µM [inhibitor, single point] | – |
| O=C(N/N=C/c1sc(N2CCOCC2)nc1-c1ccccc1)c1ccc(O)cc1 | inactive | – |
| O=C(NC(=S)Nc1cccc(Cl)c1)c1cncc(Br)c1 | inactive | – |
| COc1cccc(CNc2cccc(C(F)(F)F)c2)c1O | inactive | – |
| CCOC(=O)c1cc2c(nc1N)CCCC2 | inconclusive: 70.8 µM [inhibitor, partial curve, poor fit] | – |
| CCCN1CNc2c(c(=O)[nH]c(=S)n2CCc2cccc(C)c2C)C1 | inactive | – |
| Cc1cc(/C=C/c2c(C)cnc3ccccc23)ccc1N(C)C | inactive | – |
| COC(=O)c1c(NC(=O)CN2CCC3(O)CCCCC3C2c2ccc(OC)cc2OC)sc(C)c1C (stereo unspecified) | inconclusive: 79.4 µM [inhibitor, partial curve, poor fit] | – |
| O=C(Nc1cccc2cccnc12)OCc1ccccc1 | inconclusive: 79.4 µM [inhibitor, partial curve, poor fit] | – |
| CCOC(=O)c1ccccc1NC(=O)N(C)CCc1c(C)nn(CC)c1C | inactive | – |
| COc1ccc(C(=O)O)cc1NC(=S)NC(=O)c1ccc(-c2ccc(Cl)cc2)o1 | inactive | – |
| CCS(=O)(=O)Nc1ccc(C2=NN(C(=S)Nc3ccccc3)C(c3ccco3)C2)cc1 (stereo unspecified) | inconclusive: 44.7 µM [inhibitor, partial curve, poor fit] | – |
| N#C/C(=C\c1ccccc1)C(=O)NC(=O)Oc1ccccc1 | inconclusive: 70.8 µM [inhibitor, partial curve] | – |
| COc1ccc(CCNC2=NCCS2)cc1OC | inactive | – |
| CC(C)COc1ccc(C(=O)CCN2CCCCC2)cc1 | active: 1.41 µM | – |

| SMILES | Potency | activity change, negative = inhibition |
| --- | --- | --- |
| CN(C)S(=O)(=O)c1cccc(-n2sc3ccccc3c2=O)c1 | inactive | – |
| Cc1ccc(-c2nc(CS(=O)CC(=O)NCc3ccc(F)cc3)c(C)o2)cc1 (stereo unspecified) | inactive | – |
| S=C(Nc1cccnc1)Nc1ccccc1Br | inconclusive: 25.1 µM [inhibitor, single point] | – |
| CCNc1sc(C(=O)c2cccs2)c(N)c1C#N | inconclusive: 39.8 µM [inhibitor, partial curve, poor fit] | – |
| Cc1oc(-c2ccc(Cl)cc2)nc1CN1CCCC(C(=O)N2CCOCC2)C1 (stereo unspecified) | inactive | – |
| O=C(Nc1nnc(-c2ccccc2)s1)C1CCCN(C(=O)c2ccoc2)C1 (stereo unspecified) | inconclusive: 70.8 µM [inhibitor, partial curve] | – |
| CCN1C(=O)[C@H]2[C@@H](c3ccc(-c4ccc(F)cc4)c(OC)c3)N[C@@](C)(C(=O)OC)[C@H]2C1=O | active: 79.4 µM | – |
| CCCCOc1ccccc1C(=O)N(Cc1ccc(C)o1)C1CCS(=O)(=O)C1 (stereo unspecified) | inconclusive: 20 µM [inhibitor, partial curve, poor fit] and inconclusive: 39.8 µM [inhibitor, partial curve] | – |
| Cc1[nH]c2ccc(C(=O)NCCCN3CCOCC3)cc2c1C | inconclusive: 89.1 µM [inhibitor, single point] | – |
| Cc1cccc(NS(=O)(=O)c2ccc(NC(=O)CN(c3cc([N+](=O)[O-])ccc3C)S(C)(=O)=O)cc2)c1 | inactive | – |
| COc1cccc(NC(C)=[N+](C)CCNS(=O)(=O)c2ccc(Cl)cc2)c1 | inconclusive: 70.8 µM [inhibitor, single point] | – |
| CCOc1ccc(C(=O)O[C@H]2[C@H](Cc3ccccc3)NS(=O)(=O)[C@H]3C[C@@H]4C=C[C@]23O4)cc1 | inconclusive: 3.98 µM [inhibitor, full curve, poor fit] | – |
| O=C(c1ccc(=O)oc1)N1CCN(c2ccc(F)cc2)CC1 | inconclusive: 79.4 µM [inhibitor, single point] | – |
| CC(=O)Nc1ccc(-c2nc3ccc(NC(C)=O)cc3o2)cc1 | active: 50.1 µM | – |
| O=C(C1=C[C@@H](C2CC2)C[C@@H](OCCCCO)O1)N1CCN(Cc2ccccc2)CC1 | inconclusive: 31.6 µM [inhibitor, partial curve] | – |
| CCOC(=O)c1c(C)nc2sc(C(=O)Nc3ccc(C(C)=O)cc3)c(N)c2c1-c1ccc(OC)cc1 | inactive | – |
| Cn1c(-c2ccc(Br)o2)nc2cc(Br)ccc21 | inconclusive: 31.6 µM [inhibitor, partial curve, poor fit] | – |
| COc1cc(CNc2ccc(N3CCCC3)cc2)ccc1OCc1ccccc1 | inconclusive: 3.16 µM [inhibitor, full curve] | – |
| CCCCC(=O)NC(N1CCCCC1)C(Cl)(Cl)Cl (stereo unspecified) | inconclusive: 28.2 µM [inhibitor, single point] | – |
| CC(=O)c1ccc(C(=O)N2CCc3c([nH]c4ccccc34)C2c2ccccn2)s1 (stereo unspecified) | inconclusive: 89.1 µM [inhibitor, single point] | – |
| COC(=O)CSc1nc(-c2cccs2)ccc1C#N | inconclusive: 56.2 µM [inhibitor, partial curve, poor fit] | – |
| CCCNc1nc2c(c(=O)n(C)c(=O)n2C)n1Cc1ccc(F)cc1 | inactive | – |
| CCC1(C(=O)OC)NC(c2ccco2)C2C(=O)N(c3ccc(F)cc3)C(=O)C21 (stereo unspecified) | inconclusive: 79.4 µM [inhibitor, single point] | – |
